The target in assay [1] is high-affinity hIL-2 receptor (IL-2Rαβγ) on NK-92 cells (human) (UniProt P01589). The assay is described as follows: cell-based or functional assay.
Assay [2] concerns the target intermediate affinity hIL-2 receptor complex (IL-2Rβγ) on TF1+IL-2Rβ cells (human) (UniProt P14784). The experiment in a line: cell-based or functional assay.
UniProt P14784, sequence (P14784 27-551, chain 1 of 2): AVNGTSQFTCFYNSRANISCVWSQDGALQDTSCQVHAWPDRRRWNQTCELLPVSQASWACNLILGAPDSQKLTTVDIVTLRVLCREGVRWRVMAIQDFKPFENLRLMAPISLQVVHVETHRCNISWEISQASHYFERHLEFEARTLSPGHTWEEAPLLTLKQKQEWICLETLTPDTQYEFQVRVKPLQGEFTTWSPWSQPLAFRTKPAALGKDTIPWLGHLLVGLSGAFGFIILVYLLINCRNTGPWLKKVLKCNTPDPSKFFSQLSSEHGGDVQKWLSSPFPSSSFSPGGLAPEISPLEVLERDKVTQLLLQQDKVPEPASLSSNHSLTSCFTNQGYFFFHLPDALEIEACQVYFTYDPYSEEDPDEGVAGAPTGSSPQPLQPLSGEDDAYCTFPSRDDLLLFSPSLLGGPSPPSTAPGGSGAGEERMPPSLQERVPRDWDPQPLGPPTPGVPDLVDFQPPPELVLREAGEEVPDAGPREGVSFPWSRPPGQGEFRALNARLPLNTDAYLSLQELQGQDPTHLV
UniProt P14784, sequence (chain, as listed by the source, chain 2 of 2): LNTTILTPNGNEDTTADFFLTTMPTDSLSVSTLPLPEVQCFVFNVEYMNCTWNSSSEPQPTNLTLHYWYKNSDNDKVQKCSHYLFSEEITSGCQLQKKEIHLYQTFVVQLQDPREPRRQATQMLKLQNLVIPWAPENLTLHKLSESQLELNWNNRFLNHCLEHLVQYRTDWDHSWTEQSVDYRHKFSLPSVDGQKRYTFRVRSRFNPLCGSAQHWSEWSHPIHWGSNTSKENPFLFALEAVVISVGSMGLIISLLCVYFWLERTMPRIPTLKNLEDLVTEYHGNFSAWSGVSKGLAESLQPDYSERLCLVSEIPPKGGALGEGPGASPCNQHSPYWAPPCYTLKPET

UniProt P01589, sequence (P01589 22-272, chain 1 of 3): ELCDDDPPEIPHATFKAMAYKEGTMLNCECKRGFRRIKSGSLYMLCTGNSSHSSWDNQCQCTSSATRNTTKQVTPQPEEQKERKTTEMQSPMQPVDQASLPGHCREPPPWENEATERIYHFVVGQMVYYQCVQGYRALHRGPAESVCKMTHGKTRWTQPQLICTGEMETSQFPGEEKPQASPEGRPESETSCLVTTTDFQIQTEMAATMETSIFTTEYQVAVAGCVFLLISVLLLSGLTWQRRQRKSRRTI
UniProt P01589, sequence (chain, as listed by the source, chain 2 of 3): as the sequence (P14784 27-551, chain 1 of 2) above
UniProt P01589, sequence (chain, as listed by the source, chain 3 of 3): as the sequence (chain, as listed by the source, chain 2 of 2) above

B1: 1H3-hIgG1-L6-hIL-2 (Y45R/D20A) (protein)
heavy: EVQLVESGGGLVQPGRSLKLSCAVSGFTFSDYAMAWVRQAPKKGLEWVATISYDGSRTYYRDSVKGRFTISRDNAKITLYLQMDSLRSEDTATYYCARHGSGYFDYWGQGVMVTVSS[not shown - about 450 residues with a human IgG1 Fc and changes]
light: DTVLTQSPALAVSPGERVTISCRASESVRTGVHWYQQKPGQQPKLLIYGASNLESGVPARFSGSGSGTDFTLTIDPVEADDTATYFCQQSWNDPFTFGSGTKLEIKRTVAAPSVFIFPPSDEQLKSGTASVVCLLNNFYPREAKVQWKVDNALQSGNSQESVTEQDSKDSTYSLSSTLTLSKADYEKHKVYACEVTHQGLSSPVTKSFNRGEC
In assay [1], B1 had a Fold change from hIL-2 (NK-92) of 11 fold. For the same molecule, the Fold change from hIL-2 (TF1 + IL-2Rβ) in assay [2] is 1 fold.

B2: 1H3-hIgG1-L6-hIL-2 (F42D/I92D) (protein)
heavy: EVQLVESGGGLVQPGRSLKLSCAVSGFTFSDYAMAWVRQAPKKGLEWVATISYDGSRTYYRDSVKGRFTISRDNAKITLYLQMDSLRSEDTATYYCARHGSGYFDYWGQGVMVTVSS[not shown - about 450 residues with a human IgG1 Fc and changes]
light: DTVLTQSPALAVSPGERVTISCRASESVRTGVHWYQQKPGQQPKLLIYGASNLESGVPARFSGSGSGTDFTLTIDPVEADDTATYFCQQSWNDPFTFGSGTKLEIKRTVAAPSVFIFPPSDEQLKSGTASVVCLLNNFYPREAKVQWKVDNALQSGNSQESVTEQDSKDSTYSLSSTLTLSKADYEKHKVYACEVTHQGLSSPVTKSFNRGEC
Take B2: the Fold change from hIL-2 (NK-92) in assay [1] came to 12 fold. Also, the Fold change from hIL-2 (TF1 + IL-2Rβ) in assay [2] was determined as 5 fold.

B3: 1H3-hIgG1-L6-hIL-2 (R38T/D20A) (protein)
heavy: EVQLVESGGGLVQPGRSLKLSCAVSGFTFSDYAMAWVRQAPKKGLEWVATISYDGSRTYYRDSVKGRFTISRDNAKITLYLQMDSLRSEDTATYYCARHGSGYFDYWGQGVMVTVSS[not shown - about 450 residues with a human IgG1 Fc and changes]
light: DTVLTQSPALAVSPGERVTISCRASESVRTGVHWYQQKPGQQPKLLIYGASNLESGVPARFSGSGSGTDFTLTIDPVEADDTATYFCQQSWNDPFTFGSGTKLEIKRTVAAPSVFIFPPSDEQLKSGTASVVCLLNNFYPREAKVQWKVDNALQSGNSQESVTEQDSKDSTYSLSSTLTLSKADYEKHKVYACEVTHQGLSSPVTKSFNRGEC
As to B3, in assay [1], the Fold change from hIL-2 (NK-92) came out at 13 fold. Further, in assay [2], the Fold change from hIL-2 (TF1 + IL-2Rβ) stood at 3 fold.

B4: 1H3-hIgG1-L6-hIL-2 (E62Y/D20A) (protein)
heavy: EVQLVESGGGLVQPGRSLKLSCAVSGFTFSDYAMAWVRQAPKKGLEWVATISYDGSRTYYRDSVKGRFTISRDNAKITLYLQMDSLRSEDTATYYCARHGSGYFDYWGQGVMVTVSS[not shown - about 450 residues with a human IgG1 Fc and changes]
light: DTVLTQSPALAVSPGERVTISCRASESVRTGVHWYQQKPGQQPKLLIYGASNLESGVPARFSGSGSGTDFTLTIDPVEADDTATYFCQQSWNDPFTFGSGTKLEIKRTVAAPSVFIFPPSDEQLKSGTASVVCLLNNFYPREAKVQWKVDNALQSGNSQESVTEQDSKDSTYSLSSTLTLSKADYEKHKVYACEVTHQGLSSPVTKSFNRGEC
In turn, B4 showed a Fold change from hIL-2 (NK-92) in assay [1] of 14 fold. Moreover, the Fold change from hIL-2 (TF1 + IL-2Rβ) in assay [2] worked out at 3 fold.

B5: 1H3-hIgG1-L6-hIL-2 (L72D/D20A) (protein)
heavy: EVQLVESGGGLVQPGRSLKLSCAVSGFTFSDYAMAWVRQAPKKGLEWVATISYDGSRTYYRDSVKGRFTISRDNAKITLYLQMDSLRSEDTATYYCARHGSGYFDYWGQGVMVTVSS[not shown - about 450 residues with a human IgG1 Fc and changes]
light: DTVLTQSPALAVSPGERVTISCRASESVRTGVHWYQQKPGQQPKLLIYGASNLESGVPARFSGSGSGTDFTLTIDPVEADDTATYFCQQSWNDPFTFGSGTKLEIKRTVAAPSVFIFPPSDEQLKSGTASVVCLLNNFYPREAKVQWKVDNALQSGNSQESVTEQDSKDSTYSLSSTLTLSKADYEKHKVYACEVTHQGLSSPVTKSFNRGEC
Regarding B5, in assay [1], the Fold change from hIL-2 (NK-92) is 14 fold. Besides, in assay [2], the Fold change from hIL-2 (TF1 + IL-2Rβ) was 2 fold.

B6: 1H3-hIgG1-L6-hIL-2 (E62A/D20A) (protein)
heavy: EVQLVESGGGLVQPGRSLKLSCAVSGFTFSDYAMAWVRQAPKKGLEWVATISYDGSRTYYRDSVKGRFTISRDNAKITLYLQMDSLRSEDTATYYCARHGSGYFDYWGQGVMVTVSS[not shown - about 450 residues with a human IgG1 Fc and changes]
light: DTVLTQSPALAVSPGERVTISCRASESVRTGVHWYQQKPGQQPKLLIYGASNLESGVPARFSGSGSGTDFTLTIDPVEADDTATYFCQQSWNDPFTFGSGTKLEIKRTVAAPSVFIFPPSDEQLKSGTASVVCLLNNFYPREAKVQWKVDNALQSGNSQESVTEQDSKDSTYSLSSTLTLSKADYEKHKVYACEVTHQGLSSPVTKSFNRGEC
B6: the Fold change from hIL-2 (NK-92) in assay [1] was 14 fold. Also, in assay [2], the Fold change from hIL-2 (TF1 + IL-2Rβ) is 2 fold.

B7: 1H3-hIgG1-L6-hIL-2 (L72H/D20A) (protein)
heavy: EVQLVESGGGLVQPGRSLKLSCAVSGFTFSDYAMAWVRQAPKKGLEWVATISYDGSRTYYRDSVKGRFTISRDNAKITLYLQMDSLRSEDTATYYCARHGSGYFDYWGQGVMVTVSS[not shown - about 450 residues with a human IgG1 Fc and changes]
light: DTVLTQSPALAVSPGERVTISCRASESVRTGVHWYQQKPGQQPKLLIYGASNLESGVPARFSGSGSGTDFTLTIDPVEADDTATYFCQQSWNDPFTFGSGTKLEIKRTVAAPSVFIFPPSDEQLKSGTASVVCLLNNFYPREAKVQWKVDNALQSGNSQESVTEQDSKDSTYSLSSTLTLSKADYEKHKVYACEVTHQGLSSPVTKSFNRGEC
For the molecule B7, the Fold change from hIL-2 (NK-92) in assay [1] is 14 fold. Besides, the Fold change from hIL-2 (TF1 + IL-2Rβ) in assay [2] was 3 fold.

B8: 1H3-hIgG1-L6-hIL-2 (Y45K/D20A) (protein)
heavy: EVQLVESGGGLVQPGRSLKLSCAVSGFTFSDYAMAWVRQAPKKGLEWVATISYDGSRTYYRDSVKGRFTISRDNAKITLYLQMDSLRSEDTATYYCARHGSGYFDYWGQGVMVTVSS[not shown - about 450 residues with a human IgG1 Fc and changes]
light: DTVLTQSPALAVSPGERVTISCRASESVRTGVHWYQQKPGQQPKLLIYGASNLESGVPARFSGSGSGTDFTLTIDPVEADDTATYFCQQSWNDPFTFGSGTKLEIKRTVAAPSVFIFPPSDEQLKSGTASVVCLLNNFYPREAKVQWKVDNALQSGNSQESVTEQDSKDSTYSLSSTLTLSKADYEKHKVYACEVTHQGLSSPVTKSFNRGEC
Turning to B8, the Fold change from hIL-2 (NK-92) in assay [1] came out at 11 fold. Besides, the Fold change from hIL-2 (TF1 + IL-2Rβ) in assay [2] was found to be 2 fold.

B9: 1H3-hIgG1-L6-hIL-2 (L72R/D20A) (protein)
heavy: EVQLVESGGGLVQPGRSLKLSCAVSGFTFSDYAMAWVRQAPKKGLEWVATISYDGSRTYYRDSVKGRFTISRDNAKITLYLQMDSLRSEDTATYYCARHGSGYFDYWGQGVMVTVSS[not shown - about 450 residues with a human IgG1 Fc and changes]
light: DTVLTQSPALAVSPGERVTISCRASESVRTGVHWYQQKPGQQPKLLIYGASNLESGVPARFSGSGSGTDFTLTIDPVEADDTATYFCQQSWNDPFTFGSGTKLEIKRTVAAPSVFIFPPSDEQLKSGTASVVCLLNNFYPREAKVQWKVDNALQSGNSQESVTEQDSKDSTYSLSSTLTLSKADYEKHKVYACEVTHQGLSSPVTKSFNRGEC
On to B9, for which the Fold change from hIL-2 (NK-92) in assay [1] came out at 10 fold. The Fold change from hIL-2 (TF1 + IL-2Rβ) in assay [2] amounted to 3 fold.

B10: 1H3-hIgG1-L6-hIL-2 (K43E/I92D) (protein)
heavy: EVQLVESGGGLVQPGRSLKLSCAVSGFTFSDYAMAWVRQAPKKGLEWVATISYDGSRTYYRDSVKGRFTISRDNAKITLYLQMDSLRSEDTATYYCARHGSGYFDYWGQGVMVTVSS[not shown - about 450 residues with a human IgG1 Fc and changes]
light: DTVLTQSPALAVSPGERVTISCRASESVRTGVHWYQQKPGQQPKLLIYGASNLESGVPARFSGSGSGTDFTLTIDPVEADDTATYFCQQSWNDPFTFGSGTKLEIKRTVAAPSVFIFPPSDEQLKSGTASVVCLLNNFYPREAKVQWKVDNALQSGNSQESVTEQDSKDSTYSLSSTLTLSKADYEKHKVYACEVTHQGLSSPVTKSFNRGEC
B10 registered a Fold change from hIL-2 (NK-92) in assay [1] of 13 fold. Moreover, the Fold change from hIL-2 (TF1 + IL-2Rβ) in assay [2] worked out at 4 fold.

B11: 1H3-hIgG1-L6-hIL-2 (R38Y/D20A) (protein)
heavy: EVQLVESGGGLVQPGRSLKLSCAVSGFTFSDYAMAWVRQAPKKGLEWVATISYDGSRTYYRDSVKGRFTISRDNAKITLYLQMDSLRSEDTATYYCARHGSGYFDYWGQGVMVTVSS[not shown - about 450 residues with a human IgG1 Fc and changes]
light: DTVLTQSPALAVSPGERVTISCRASESVRTGVHWYQQKPGQQPKLLIYGASNLESGVPARFSGSGSGTDFTLTIDPVEADDTATYFCQQSWNDPFTFGSGTKLEIKRTVAAPSVFIFPPSDEQLKSGTASVVCLLNNFYPREAKVQWKVDNALQSGNSQESVTEQDSKDSTYSLSSTLTLSKADYEKHKVYACEVTHQGLSSPVTKSFNRGEC
For B11, the Fold change from hIL-2 (NK-92) in assay [1] is 14 fold. Further, the Fold change from hIL-2 (TF1 + IL-2Rβ) in assay [2] turned out to be 3 fold.

B12: 1H3-hIgG1-L6-hIL-2 (E61A/D20A) (protein)
heavy: EVQLVESGGGLVQPGRSLKLSCAVSGFTFSDYAMAWVRQAPKKGLEWVATISYDGSRTYYRDSVKGRFTISRDNAKITLYLQMDSLRSEDTATYYCARHGSGYFDYWGQGVMVTVSS[not shown - about 450 residues with a human IgG1 Fc and changes]
light: DTVLTQSPALAVSPGERVTISCRASESVRTGVHWYQQKPGQQPKLLIYGASNLESGVPARFSGSGSGTDFTLTIDPVEADDTATYFCQQSWNDPFTFGSGTKLEIKRTVAAPSVFIFPPSDEQLKSGTASVVCLLNNFYPREAKVQWKVDNALQSGNSQESVTEQDSKDSTYSLSSTLTLSKADYEKHKVYACEVTHQGLSSPVTKSFNRGEC
For B12, the Fold change from hIL-2 (NK-92) in assay [1] was 14 fold. The Fold change from hIL-2 (TF1 + IL-2Rβ) in assay [2] was 2 fold.

B13: 1H3-hIgG1-L6-hIL-2 (R38W/D20A) (protein)
heavy: EVQLVESGGGLVQPGRSLKLSCAVSGFTFSDYAMAWVRQAPKKGLEWVATISYDGSRTYYRDSVKGRFTISRDNAKITLYLQMDSLRSEDTATYYCARHGSGYFDYWGQGVMVTVSS[not shown - about 450 residues with a human IgG1 Fc and changes]
light: DTVLTQSPALAVSPGERVTISCRASESVRTGVHWYQQKPGQQPKLLIYGASNLESGVPARFSGSGSGTDFTLTIDPVEADDTATYFCQQSWNDPFTFGSGTKLEIKRTVAAPSVFIFPPSDEQLKSGTASVVCLLNNFYPREAKVQWKVDNALQSGNSQESVTEQDSKDSTYSLSSTLTLSKADYEKHKVYACEVTHQGLSSPVTKSFNRGEC
In assay [1], B13 had a Fold change from hIL-2 (NK-92) of 14 fold. In addition, in assay [2], the Fold change from hIL-2 (TF1 + IL-2Rβ) came to 2 fold.

The values are drawn from patent publication US20240076343A1.
